Results reported in PubChem BioAssay AID485294 (National Center for Advancing Translational Sciences (NCATS), 2010).
The campaign covered roughly 370,000 compounds. About 150 (0.041%) were called active. The inconclusive results got no clear call from the source; some entries with a clear call stand among them for comparison. Calls come from the whole dose curve; as a rule, active = well fitted inhibition curve with a large enough effect; inconclusive = small, poorly fitted or top-dose-only effect; inactive = flat fitted curve, though single readings scatter. Potencies of inconclusive entries are left out as doubtful fits.
Note: nearly all actives have a fitted effect of over 25% in size.
Potency is the fitted concentration of half-maximal effect; tags give direction and shape of the fitted curve.
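Throughout, for activity change, negative = inhibition: 0% = no-compound wells and -100% = no-enzyme wells.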

What follows are compounds tested against Beta-lactamase (Escherichia coli (strain K12)) (UniProt P00811) (assay: qHTS Inhibitors of AmpC Beta-Lactamase (assay with detergent)). Conditions: AmpC hydrolysis of nitrocefin, absorbance 480 nm, 0.01% Triton; activity change, negative = inhibition: at 114 µM (top of the series).
Chain of UniProt P00811 (P00811 whole entry, looked up): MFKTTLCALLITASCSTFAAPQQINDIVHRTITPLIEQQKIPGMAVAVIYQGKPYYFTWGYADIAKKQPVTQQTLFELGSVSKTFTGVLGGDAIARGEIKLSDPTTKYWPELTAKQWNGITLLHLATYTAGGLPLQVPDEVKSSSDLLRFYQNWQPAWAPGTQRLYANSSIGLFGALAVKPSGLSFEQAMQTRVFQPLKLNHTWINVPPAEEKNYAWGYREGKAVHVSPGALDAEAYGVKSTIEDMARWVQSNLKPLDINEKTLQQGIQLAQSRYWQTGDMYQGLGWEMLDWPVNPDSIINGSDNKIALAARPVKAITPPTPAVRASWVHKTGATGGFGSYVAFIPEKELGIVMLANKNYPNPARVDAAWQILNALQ
Procedure, shortened: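 20 mM phosphate pH 7.0 + 0.01% (detergent screen) or 0.0001% Triton X-100; 5.3 nM AmpC reagent; cpd preinc 15 min RT; nitrocefin (800 uM stock) to start; A480 q20 s × 4 min; Activity was normalised to no-enzyme and no-compound control wells.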
For `Cc1ccc(C(=O)NC(O)C(Cl)Cl)cc1` (stereo not given), the Potency was “inactive”. In the case of `O=C(COC(=O)c1cc([N+](=O)[O-])ccc1N1CCOCC1)c1ccc(F)cc1`, the Potency is reported as inconclusive [inhibitor, full curve, poor fit]. With `O=C1Nc2ccccc2C(=O)C1(Cl)Cc1ccccc1` (stereo not given) the Potency was inconclusive [inhibitor, partial curve, poor fit]. With `COc1ccc(Cl)c2sc(NC(=O)c3ccc(S(=O)(=O)N4CCCC4)cc3)nc12` the Potency was “inactive”. In the case of `Cc1cc(OCC(=O)NC(Cc2ccc(Cl)cc2)C(=O)O)c2c3c(c(=O)oc2c1)CCC3` (stereo not given), the Potency is reported as inconclusive [inhibitor, full curve]. With `O=c1c2ccccc2nc(-c2ccccc2)n1Cc1ccccc1` the Potency was inconclusive [inhibitor, single point]. With `Cc1ccsc1C(=O)OCC(=O)N(C)c1c(N)n(Cc2ccccc2)c(=O)[nH]c1=O` the activity change, negative = inhibition was inconclusive: -18.2% [inhibitor]. In the case of `O=C1CCC(C(=O)Nc2cccc(Oc3ccccc3)c2)=NN1`, the Potency is reported as inconclusive [inhibitor, full curve, poor fit]. For `CCOP(=O)(C#CC(C)(C)C)C1(O)CCCCC1` (stereo not given), the Potency was inconclusive [inhibitor, full curve]. For `CCc1c(C(=O)N/N=C/c2ccsc2)csc1C`, the Potency was inconclusive [inhibitor, single point]. With `COc1ccc(NC(=O)CSC2=Nc3ccccc3C3=NC(CCC(=O)NC4CCCCC4)C(=O)N23)cc1Cl` (stereo not given) the Potency was “inactive”. In the case of `Cc1ccc(-n2nc(CO)c(C(=O)NCc3cccnc3)n2)cc1C`, the Potency is reported as “inactive”. With `CSc1ccc(C2C(C#N)=C(N)Oc3cc4c(cc32)OCO4)cc1` (stereo not given) the Potency was inconclusive [inhibitor, partial curve, poor fit]. For `CN(CC(=O)Nc1cccc(F)c1)C(=O)c1ccccc1CCc1ccccc1`, the Potency was “inactive”. For `COc1ccc(OC)c(NC(=O)CSc2nc3n[nH]c(C)c3c(=N)n2-c2cccc(Cl)c2C)c1`, the Potency was “inactive”. In the case of `CC1CCc2[nH]nc(C(=O)O)c2C1` (stereo not given), the Potency is reported as inconclusive [inhibitor, full curve, poor fit]. In the case of `CCOCCCNC(=O)Cn1cnc2c(cnn2-c2ccc(OC)cc2)c1=O`, the Potency is reported as inconclusive [inhibitor, full curve, poor fit]. In the case of `COc1ccccc1OCCCOc1ccc(C)cc1Br`, the Potency is reported as inconclusive [inhibitor, full curve, poor fit]. For `CC(C)CC(=O)NC(=S)Nc1ccccc1F`, the Potency was “inactive”. In the case of `O=C(NCCc1cccs1)C1CC(c2c(Cl)cccc2Cl)=NO1` (stereo not given), the Potency is reported as inconclusive [inhibitor, single point].
